# Reference: paper PMC12820563
# This is one part of the list. The list includes weakly bound sequences.
# Target: T1, MBP-FoxP3dN (UniProt Q99JB6)
# T1 sequence: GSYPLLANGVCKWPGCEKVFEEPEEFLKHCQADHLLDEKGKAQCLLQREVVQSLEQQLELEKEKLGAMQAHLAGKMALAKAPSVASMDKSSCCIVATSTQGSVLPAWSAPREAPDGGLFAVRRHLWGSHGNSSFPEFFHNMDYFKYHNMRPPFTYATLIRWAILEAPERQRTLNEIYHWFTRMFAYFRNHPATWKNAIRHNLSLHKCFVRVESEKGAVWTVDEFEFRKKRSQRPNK
# Assay: PD-seq (MBP pull-down with sequencing)
# Settings: 20 mM Tris-HCl pH 7.5, 100 mM NaCl, 1.5 mM MgCl2, 0.4 uM protein, 0.1 uM dsDNA library, 30 min, room temperature, amylose pull-down; high values mean tight binding; double strand, one strand shown
row,Sequence,binding signal (RPM ratio (pull-down/input))
1,GATGATTGTTCTCCCAGCTGATGAATTTCGTAGATCGAGTAAACAAATTTTCCTAATCTTTCTGTTCAAGCGCCATCTAC,0.366
2,GATGATTGTTCTCCCAGCTGATGAATTACGGGCTTCGAGTAAACAAATTTTCCTAATCTTTCTGTTCAAGCGCCATCTAC,0.401
3,GATGATTGTTCTCCCAGCTGATGAATTGGTATGATCGAGTAAACAAATTTTCCTAATCTTTCTGTTCAAGCGCCATCTAC,0.698
4,GATGATTGTTCTCCCAGCTGATGAATTTACTATGTCGAGTAAACAAATTTTCCTAATCTTTCTGTTCAAGCGCCATCTAC,0.943
5,GATGATTGTTCTCCCAGCTGATGAATTGTCTATATCGAGTAAACAAATTTTCCTAATCTTTCTGTTCAAGCGCCATCTAC,1.03
6,GATGATTGTTCTCCCAGCTGATGAATTCCCTGACTCGAGTAAACAAATTTTCCTAATCTTTCTGTTCAAGCGCCATCTAC,0.199
7,GATGATTGTTCTCCCAGCTGATGAATTGGGCTAATCGAGTAAACAAATTTTCCTAATCTTTCTGTTCAAGCGCCATCTAC,0.36
8,GATGATTGTTCTCCCAGCTGATGAATTTTGCGAGTCGAGTAAACAAATTTTCCTAATCTTTCTGTTCAAGCGCCATCTAC,1.55
9,GATGATTGTTCTCCCAGCTGATGAATTATAGCCATCGAGTAAACAAATTTTCCTAATCTTTCTGTTCAAGCGCCATCTAC,1.56
10,GATGATTGTTCTCCCAGCTGATGAATTGCCCACATCGAGTAAACAAATTTTCCTAATCTTTCTGTTCAAGCGCCATCTAC,0.609
11,GATGATTGTTCTCCCAGCTGATGAATTAGTCACCTCGAGTAAACAAATTTTCCTAATCTTTCTGTTCAAGCGCCATCTAC,1.55
12,GATGATTGTTCTCCCAGCTGATGAATTTCCGGGATCGAGTAAACAAATTTTCCTAATCTTTCTGTTCAAGCGCCATCTAC,0.215
13,GATGATTGTTCTCCCAGCTGATGAATTAGGGCCATCGAGTAAACAAATTTTCCTAATCTTTCTGTTCAAGCGCCATCTAC,1.12
14,GATGATTGTTCTCCCAGCTGATGAATTTACATTTTCGAGTAAACAAATTTTCCTAATCTTTCTGTTCAAGCGCCATCTAC,0.509
15,GATGATTGTTCTCCCAGCTGATGAATTGGAGGACTCGAGTAAACAAATTTTCCTAATCTTTCTGTTCAAGCGCCATCTAC,0.276
16,GATGATTGTTCTCCCAGCTGATGAATTTTAAAAATCGAGTAAACAAATTTTCCTAATCTTTCTGTTCAAGCGCCATCTAC,0.162
17,GATGATTGTTCTCCCAGCTGATGAATTTGCATCGTCGAGTAAACAAATTTTCCTAATCTTTCTGTTCAAGCGCCATCTAC,4.11
18,GATGATTGTTCTCCCAGCTGATGAATTTTAAACTTCGAGTAAACAAATTTTCCTAATCTTTCTGTTCAAGCGCCATCTAC,0.212
19,GATGATTGTTCTCCCAGCTGATGAATTCATCCGCTCGAGTAAACAAATTTTCCTAATCTTTCTGTTCAAGCGCCATCTAC,0.235
20,GATGATTGTTCTCCCAGCTGATGAATTAATAAGCTCGAGTAAACAAATTTTCCTAATCTTTCTGTTCAAGCGCCATCTAC,0.331

row,Sequence,binding signal (RPM ratio (pull-down/input))
1,GATGATTGTTCTCCCAGCTGATGAATTTAGGTGCTCGAGTAAACAAATTTTCCTAATCTTTCTGTTCAAGCGCCATCTAC,0.661
2,GATGATTGTTCTCCCAGCTGATGAATTAAGCAGATCGAGTAAACAAATTTTCCTAATCTTTCTGTTCAAGCGCCATCTAC,0.319
3,GATGATTGTTCTCCCAGCTGATGAATTACAAGCCTCGAGTAAACAAATTTTCCTAATCTTTCTGTTCAAGCGCCATCTAC,0.626
4,GATGATTGTTCTCCCAGCTGATGAATTTCGATAGTCGAGTAAACAAATTTTCCTAATCTTTCTGTTCAAGCGCCATCTAC,0.744
5,GATGATTGTTCTCCCAGCTGATGAATTGCGCACTTCGAGTAAACAAATTTTCCTAATCTTTCTGTTCAAGCGCCATCTAC,1.75
6,GATGATTGTTCTCCCAGCTGATGAATTACACGCATCGAGTAAACAAATTTTCCTAATCTTTCTGTTCAAGCGCCATCTAC,1.28
7,GATGATTGTTCTCCCAGCTGATGAATTGATTAGATCGAGTAAACAAATTTTCCTAATCTTTCTGTTCAAGCGCCATCTAC,0.518
8,GATGATTGTTCTCCCAGCTGATGAATTGAGGAATTCGAGTAAACAAATTTTCCTAATCTTTCTGTTCAAGCGCCATCTAC,0.607
9,GATGATTGTTCTCCCAGCTGATGAATTCACGCTGTCGAGTAAACAAATTTTCCTAATCTTTCTGTTCAAGCGCCATCTAC,0.614
10,GATGATTGTTCTCCCAGCTGATGAATTACATTAGTCGAGTAAACAAATTTTCCTAATCTTTCTGTTCAAGCGCCATCTAC,0.7
11,GATGATTGTTCTCCCAGCTGATGAATTTGCAGACTCGAGTAAACAAATTTTCCTAATCTTTCTGTTCAAGCGCCATCTAC,0.432
12,GATGATTGTTCTCCCAGCTGATGAATTAGTTGGATCGAGTAAACAAATTTTCCTAATCTTTCTGTTCAAGCGCCATCTAC,1.06
13,GATGATTGTTCTCCCAGCTGATGAATTTTGTACATCGAGTAAACAAATTTTCCTAATCTTTCTGTTCAAGCGCCATCTAC,1.47
14,GATGATTGTTCTCCCAGCTGATGAATTTTTGGCATCGAGTAAACAAATTTTCCTAATCTTTCTGTTCAAGCGCCATCTAC,0.785
15,GATGATTGTTCTCCCAGCTGATGAATTCAAGCTCTCGAGTAAACAAATTTTCCTAATCTTTCTGTTCAAGCGCCATCTAC,0.513
16,GATGATTGTTCTCCCAGCTGATGAATTTCATTGGTCGAGTAAACAAATTTTCCTAATCTTTCTGTTCAAGCGCCATCTAC,1.11
17,GATGATTGTTCTCCCAGCTGATGAATTACTATGGTCGAGTAAACAAATTTTCCTAATCTTTCTGTTCAAGCGCCATCTAC,0.379
18,GATGATTGTTCTCCCAGCTGATGAATTTGAGGCGTCGAGTAAACAAATTTTCCTAATCTTTCTGTTCAAGCGCCATCTAC,0.796
19,GATGATTGTTCTCCCAGCTGATGAATTCAGTCATTCGAGTAAACAAATTTTCCTAATCTTTCTGTTCAAGCGCCATCTAC,1.04
20,GATGATTGTTCTCCCAGCTGATGAATTGCGGGGATCGAGTAAACAAATTTTCCTAATCTTTCTGTTCAAGCGCCATCTAC,0.651
